PubChem BioAssay AID1963576 (National Center for Advancing Translational Sciences (NCATS), 2024)
In all, about 46,000 compounds went through this assay and about 60 (0.1%) were called active. Another 3% or so got no clear call; they are omitted. Calls follow the shape of the dose curve; as a rule, active = well fitted inhibition curve with a large enough effect; inconclusive = small, poorly fitted or top-dose-only effect; inactive = no such curve, though single readings can be large or run the other way. The list shows a part of the results.

Assay: Primary qHTS assay for Inhibitors of ovarian cancer metastasis using an organotypic tumor microenvironment (TME) model. Also: nearly all actives have a fitted effect of over 65% in size.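 As to activity change, negative = inhibition: plate controls were DMSO wells for no effect and tomatine positive control wells for full effect.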
Settings: SKOV3ip1-GFP adhesion/invasion on 3D omental model, fluorescence; series mostly up to 45.8 µM; activity change, negative = inhibition: at the top concentration
Outline: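 Primary human omental fibroblast/mesothelial 3D culture pre-formed 48 h. SKOV3ip1-GFP cells added with compounds (0.36-46 umol/L), incubated 2 h RT/16 h 37 C, fixed; GFP cells quantified at 488/509 nm.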

Activity change, negative = inhibition, inactive:
CCOc1ccc(-c2nc(Cn3c(=O)cc(-c4ccccc4)c4c(C)nn(C)c43)c(C)o2)cc1 -8.44%
CC1CCC(C(=O)N(c2cc(C#CC(C)(C)C)sc2C(=O)O)C2CCC(O)CC2)CC1 (stereo not given) -3%
CCOc1ccc(NC(=O)CN(c2ccc(CC)cc2)S(=O)(=O)c2c(C)noc2C)cc1 -4.17%
Cc1ccc(CNC(=O)Cn2c(=O)cc(C(F)(F)F)c3c(C)nn(C)c32)cc1 3.29%
COC(=O)C1=C(c2ccccc2)c2ccccc2S(=O)(=O)N1CC(=O)Nc1ccc(F)c(F)c1 8%
Cc1sc2ncn(CC(=O)N3CCN(c4ccc(F)cc4)CC3)c(=O)c2c1S(=O)(=O)N1CCC(C)CC1 -7.63%
CSc1ncc(C(=O)NCc2cccc(F)c2)c(-c2ccccc2)n1 -0.286%
CC(C)Oc1ccc(CNC(=O)c2ccc(CN3CC(=O)N4CCCCC4C3=O)cc2)cc1 (stereo not given) 10.3%
O=C(NCc1cccc(Cl)c1)c1ccc(NC(=O)N2CC3CCCN3c3ccccc32)cc1 (stereo not given) -5.82%
Oc1c(C(c2ccc(Cl)cc2Cl)N2CCN(c3ccccc3)CC2)sc2nc(-c3ccco3)nn12 (stereo not given) -6.14%
O=C(CCS(=O)(=O)c1cc2c(cc1Cl)NC(=O)CO2)NCc1ccccc1Cl 2.18%
COc1ccc(CN(Cc2ccco2)c2cnc(S(C)(=O)=O)nc2C(=O)Nc2ccc(C)c(Cl)c2)cc1 -1.01%
O=c1c2oc3ccccc3c2n(Cc2ccccc2Cl)c(=O)n1Cc1ccco1 -5.41%
CCCc1nc(SC)ncc1C(=O)N1CCN(c2ccc(Cl)cc2)CC1 6.17%
CC(C)Oc1ccc(C(=O)N2CCN(CCc3ccccn3)CC2)cc1 5.72%
O=C(NCCc1ccccc1)C1CCC(CNS(=O)(=O)c2ccccc2)CC1 (stereo not given) -6.22%
Cc1ccc(NC(=O)c2cnn3c(C(F)F)cc(-c4ccccc4)nc23)cc1F 10.2%
CCOc1ccc(NC(=O)NCCc2c(C)nn(C)c2C)cc1 9.87%
CC1CCc2nn(CC(=O)Nc3ccccc3Cl)cc2C1 (stereo not given) -2.96%
CCc1ccc(-c2nc3c(c(SCc4ccccc4F)n2)Cc2c(CO)cnc(C)c2O3)cc1 4.79%
Cc1cccc(N2CCN(C(=O)CN3CCSc4ccccc43)CC2C)c1 (stereo not given) 9.17%
Cc1ccc(NC(=O)C(C)Sc2nc(=O)cc(N)n2-c2cccc(C)c2)cc1 (stereo not given) 16.3%
COc1cccc(S(=O)(=O)N2CCN(Cc3ccc4c(c3)OCO4)CC2)c1 3.82%
COc1ccc(NC(=O)C(=O)NCC(c2cccnc2)N2CCc3ccccc32)cc1OC (stereo not given) -12.7%
O=C(C1CCCN(S(=O)(=O)c2ccc(Br)s2)C1)N1CCN(c2cccc(Cl)c2)CC1 (stereo not given) 1.24%
Cc1ccccc1OCC(=O)Nc1ccc2nc(SCC(=O)N3CCc4ccccc43)sc2c1 2.55%
COc1ccc(OCC(=O)Nc2cc(-c3nc4ccccc4s3)ccc2C)cc1 -2.4%
COc1ccc2c(c1)c1c(c(=O)n(-c3ccc(C)cc3)c(=O)n1CC(=O)NCc1ccc(C)cc1)n2C -2.6%
COc1ccc(Cl)cc1NC(=O)c1nnn(Cc2cccc(C(F)(F)F)c2)c1N 5.69%
Cc1ccc(CNc2ncnc3c2cnn3-c2ccc(Cl)cc2)cc1 -14.2%
COc1ccccc1C1Nc2c(sc3nc(C)cc(C)c23)C(=O)N1c1ccccc1 (stereo not given) 18.8%
COc1cccc(C2C(C(=O)Nc3ccc(Cl)cc3)=C(C)Nc3nc4ccccc4n32)c1 (stereo not given) 8.31%
CCC(C)Sc1oc(-c2ccco2)nc1S(=O)(=O)c1ccc(C)cc1 (stereo not given) -9.91%
CCN(CC)c1ccc(NC(=O)CCc2nc3cccnc3n2Cc2cccs2)c(C)c1 -10.3%
O=C(NCC(c1ccc2c(c1)OCO2)N1CCOCC1)C(=O)Nc1ccccc1 (stereo not given) 5.99%
C=CCc1cccc2cc(C(=O)NCCc3c(C)[nH]c4c(C)cccc34)c(=O)oc12 17.2%
NS(=O)(=O)c1ccc(CCNC(=O)Cn2c(-c3cccs3)cc3ccccc32)cc1 -10.5%
Cc1ccccc1NC(=O)c1ccc2c(O)c(S(=O)(=O)c3ccccc3)c(=O)[nH]c2c1 0.184%
CN(Cc1ccc(F)cc1)S(=O)(=O)c1nnc(NC(=O)c2ccccc2Cl)s1 11.3%
CCc1nc(-c2cc(S(=O)(=O)N3CCN(c4ccccc4F)CC3)ccc2OC)no1 -1.48%
Cn1nnnc1SCCCNCc1ccc(-c2ccc(F)c(Cl)c2)o1 -4.18%
Cc1ccc(S(=O)(=O)Nc2cc3c(cc2C)n(C)c(=O)c(=O)n3C)c(C)c1 1.61%
Cc1cc(C)cc(Nc2cc(C(=O)NC3CCC(C)CC3)c3ccccc3n2)c1 (stereo not given) 24%
COc1ccc(CCNC(=O)c2c(C)oc3ncnc(N4CCOCC4)c23)c(OC)c1 -18.9%
Cc1cc(C)cc(NS(=O)(=O)c2ccc(N3CCCCS3(=O)=O)cc2)c1 3.41%
Cc1cc(=O)n(CC(=O)NCc2ccc(OC(C)C)cc2)c2c1c(C)nn2-c1cccc(F)c1 -6.03%
CCc1ccc(NC(=O)CN2C(=O)CCSc3ccccc32)cc1 9.32%
O=C(NCCc1ccccc1)c1ccc(CS(=O)(=O)Cc2ccccc2Cl)o1 9.69%
Cc1ccc(CNC(=O)C2CCCN(S(=O)(=O)c3cn(C)cn3)C2)cc1 (stereo not given) 3.78%
CCOc1cc(CN2CCN(S(=O)(=O)c3ccc(C)cc3)CC2)ccc1OC -8.76%
COc1ccc(Nc2c(-c3ccc(N4CCOCC4)cc3)nc3ncccn23)cc1OC -5.5%
O=c1c(N2CCc3ccccc3C2)csc2ccc(Cl)cc12 16.8%
CC(C)Cc1nn2c(=O)cc(COC(=O)c3ccc(NC(=O)CCc4ccccc4)cc3)nc2s1 3.62%
Cc1ccc(NC(=O)C(C)Sc2nc(-c3ccccc3)c(C#N)c(=O)[nH]2)c(C)c1 (stereo not given) 8.01%
CCn1c(=O)sc2cc(NS(=O)(=O)c3ccc(C)cc3)ccc21 -4.08%
CCOC(=O)N1CCc2c(sc3c2c(=O)n(Cc2ccccc2)c(=O)n3CC(=O)Nc2ccc(C)cc2C)C1 -9.55%
CCc1ccc2c(c1)NC(c1ccc(C)cc1)=NC(c1cccs1)=N2 -18.4%
CCc1ccc(NC(=O)Cn2nnc(C(=O)NCc3ccc(C)cc3)c2N)cc1 2.55%
O=C(Nc1ccc(F)cc1F)C1CCN(S(=O)(=O)c2ccc3[nH]c(=O)ccc3c2)CC1 -0.358%
CCc1ccccc1N(C)C(=O)c1cn(-c2cccc(OC)c2)c(=O)c2ccccc12 9.34%
Cc1nc2n(c(=O)c1CCN1CCC(c3noc4cc(F)ccc34)CC1)CCCC2 10.3%
CCOc1ccc(C(=O)NCC(c2ccc3c(c2)OCO3)N2CCOCC2)cc1 (stereo not given) 0.0919%
CC(=O)c1ccc(N2C(=O)N(Cc3ccccc3C#N)c3ccccc3S2(=O)=O)cc1 2.12%
CN(C)c1ccc(C2C=C(c3ccccc3)Nc3nnnn32)cc1 (stereo not given) 5.29%
O=C(CCc1nc2cccnc2n1-c1ccccc1)Nc1ccc(Cl)c(Cl)c1 0.0812%
CC1(C(=O)NC2CCCCC2)Cc2ccccc2C(=O)N1Cc1ccccc1Cl (stereo not given) 2.98%
COc1cc(NC(=O)CCc2nc3cccnc3n2Cc2cccs2)cc(OC)c1OC -4.21%
Cc1ccc(-n2ncc(C(=O)Nc3ccc4c(c3)OCO4)c2C2CCN(C(=O)OC(C)(C)C)CC2)c(C)c1 -8.26%
COc1cc(-c2noc(-c3ccc(NCc4ccco4)c([N+](=O)[O-])c3)n2)cc(OC)c1OC 11.5%
CCCCN(CC)C(=O)c1cc2c(=O)n3ccccc3nc2n1C -0.346%
Cc1nn(C)c2c1c(C(F)(F)F)cc(=O)n2CC(=O)N1CCCCC1C (stereo not given) 0.166%
CCCOc1ccc(-c2nc(N3CCCCC3)c3ccccc3n2)cc1 -7.51%
Cc1cn2c(=O)cc(COc3ccc(NC(=O)c4ccccc4C)cc3)nc2s1 -20.9%
CCOC(=O)c1nc(Nc2ccccc2OC)c2ccccc2n1 13.5%
O=C(CN1C(=O)CC(c2ccco2)Sc2ccccc21)Nc1ccc(C(F)(F)F)cc1 (stereo not given) -5.53%
O=C(Nc1cccc(Cl)c1)N1CCC(CN2CCOCC2)CC1 -0.0803%
O=C(Cn1cnc2c(oc3ccccc32)c1=O)Nc1ccc(OC(F)(F)F)cc1 4.88%
COc1cc2[nH]c(=O)n(Cc3ccc(C(=O)N4CCN(c5cc(Cl)ccc5C)CC4)cc3)c(=O)c2cc1OC -22.8%
CCOC(=O)c1ccc(NC(=O)c2c(C)nn(-c3ccc(F)cc3)c2-n2cccc2)cc1 1.02%

outcome, inactive:
CCCn1c(SCc2nc(-c3ccc(OC)c(OC)c3)no2)nnc1-c1ccccc1
COc1ccc(OC)c(CNC(=O)c2ccc(-c3nc(CSc4ccccc4)c(C)o3)cc2)c1
Cc1c(C2=CCN(S(=O)(=O)c3cccc(Cl)c3)CC2)c2ccccc2n1CC(=O)N1CCCC1
CN(Cc1ccccc1)S(=O)(=O)c1ccc(-c2cnc(C3CC3)o2)cc1
Cc1cccc(N2CCN(S(=O)(=O)c3ccc(-c4cc(C(F)(F)F)on4)s3)CC2)c1C
COc1cccc(CC(=O)Nc2ccc(-c3nc4ccccc4s3)cc2)c1
Cc1cc2c(cc1C)NC(CC(=O)Nc1cccc(Cl)c1)C(=O)N2 (stereo not given)
O=C(Cn1c(=O)c(C(F)(F)F)nc2ccccc21)Nc1cccc(Br)c1
CCCN1C(C(=O)c2ccccc2)=C(OC(=O)c2ccc(OC)cc2)c2ccccc2S1(=O)=O
COc1ccc(/C=C/C(=O)Nc2sc(C)c(C)c2C(=O)O)cc1
CC(C)c1cnc2c(c1SCC(=O)N1CCCCC1)c(=O)n(C)c(=O)n2C
O=C(Nc1nnc(S(=O)(=O)N2CCOCC2)s1)c1ccccc1F
CC(=O)Nc1ccc(NC(=O)c2ccc3c(c2)NC(=O)c2ccccc2S3)cc1
CCc1ccc(OCc2nc(-c3ccc(OC)c(OC)c3)no2)c(Br)c1
Cc1c(C(=O)Nc2ccc(F)c(Cl)c2)oc2ccc(S(=O)(=O)N(C)C3CCCCC3)cc12
O=C(NCC(c1ccc2c(c1)OCO2)N1CCOCC1)C(=O)Nc1ccc(F)cc1F (stereo not given)
